In patent US20190367516A1 (Bayer Pharma Aktiengesellschaft, priority 2015, published 2019):

target: T1, human M2 receptor (Homo sapiens, UniProt P08172); conditions: read-out: Efficiency, M2-GIRK1/4 activation test; boosting of the acetylcholine effect at an EC20 acetylcholine concentration
T1 sequence (P08172 1-466): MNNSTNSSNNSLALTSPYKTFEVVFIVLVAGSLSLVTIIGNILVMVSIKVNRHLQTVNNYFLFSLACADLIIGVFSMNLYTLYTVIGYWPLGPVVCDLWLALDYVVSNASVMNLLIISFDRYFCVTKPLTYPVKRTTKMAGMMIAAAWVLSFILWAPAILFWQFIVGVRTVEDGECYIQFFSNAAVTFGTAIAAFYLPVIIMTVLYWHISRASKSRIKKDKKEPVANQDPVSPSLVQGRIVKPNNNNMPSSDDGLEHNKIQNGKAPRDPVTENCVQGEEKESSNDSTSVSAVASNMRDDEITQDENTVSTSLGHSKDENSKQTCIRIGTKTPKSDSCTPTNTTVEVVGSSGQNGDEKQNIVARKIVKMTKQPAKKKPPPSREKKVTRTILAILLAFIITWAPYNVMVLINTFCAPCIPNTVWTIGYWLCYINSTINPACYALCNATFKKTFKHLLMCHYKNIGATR

| SMILES | Emax |
| --- | --- |
| CC(C)(C)[C@@H](NC(=O)c1cn(-c2c(F)cc(F)cc2F)c2nc(N3C[C@@H](O)CC3=O)ccc2c1=O)C(F)(F)F [Example 357, 7-[(4S)-4-Hydroxy-2-oxopyrrolidin-1-yl]-4-oxo-N-[(2R)-1,1,1-trifluoro-3,3-dimethylbutan-2-yl]-1-(2,4,6-trifluorophenyl)-1,4-dihydro-1,8-naphthyridine-3-carboxamide] | 100% |
| O=C(NC12CC(C1)C2)c1cn(-c2c(F)cc(F)cc2F)c2nc(N3C[C@@H](O)CC3=O)ccc2c1=O [Example 358, N-(Bicyclo[1.1.1]pent-1-yl)-7-[(4S)-4-hydroxy-2-oxopyrrolidin-1-yl]-4-oxo-1-(2,4,6-trifluorophenyl)-1,4-dihydro-1,8-naphthyridine-3-carboxamide] | 95% |
| CC(C)(C)[C@H](NC(=O)c1cn(-c2c(F)cc(F)cc2F)c2nc(N3CCNC3=O)ccc2c1=O)C(F)(F)F [Example 359, 4-Oxo-7-(2-oxoimidazolidin-1-yl)-N-[(2S)-1,1,1-trifluoro-3,3-dimethylbutan-2-yl]-1-(2,4,6-trifluorophenyl)-1,4-dihydro-1,8-naphthyridine-3-carboxamide] | 98.5% |
| CC(C)(C)[C@@H](NC(=O)c1cn(-c2c(F)cc(F)cc2F)c2nc(N3CCN(CCO)C3=O)ccc2c1=O)C(F)(F)F [Example 361, 7-[3-(2-Hydroxyethyl)-2-oxoimidazolidin-1-yl]-4-oxo-N-[(2R)-1,1,1-trifluoro-3,3-dimethylbutan-2-yl]-1-(2,4,6-trifluorophenyl)-1,4-dihydro-1,8-naphthyridine-3-carboxamide] | 100% |
| CC[C@H](NC(=O)c1cn(-c2c(F)cc(F)cc2F)c2nc(N3CCN(CCO)C3=O)ccc2c1=O)C(F)(F)F [Example 362, 7-[3-(2-Hydroxyethyl)-2-oxoimidazolidin-1-yl]-4-oxo-N-[(2S)-1,1,1-trifluorobutan-2-yl]-1-(2,4,6-trifluorophenyl)-1,4-dihydro-1,8-naphthyridine-3-carboxamide] | 97% |
| O=C(N[C@@H](C1CC1)C(F)(F)F)c1cn(-c2c(F)cc(F)cc2F)c2nc(N3CCN(CCO)C3=O)ccc2c1=O [Example 363, N-[(1 S)-1-Cyclopropyl-2,2,2-trifluoroethyl]-7-[3-(2-hydroxyethyl)-2-oxoimidazolidin-1-yl]-4-oxo-1-(2,4,6-trifluorophenyl)-1,4-dihydro-1,8-naphthyridine-3-carboxamide] | 95% |
| O=C(N[C@@H](C1CC1)C(F)(F)F)c1cn(-c2c(F)cc(F)cc2F)c2nc(N3CCCN(CCO)C3=O)ccc2c1=O [Example 364, N-[(1 S)-1-Cyclopropyl-2,2,2-trifluoroethyl]-7-[3-(2-hydroxyethyl)-2-oxotetrahydropyrimidin-1(2H)-yl]-4-oxo-1-(2,4,6-trifluorophenyl)-1,4-dihydro-1,8-naphthyridine-3-carboxamide] | 93% |
| CC[C@H](NC(=O)c1cn(-c2c(F)cc(F)cc2F)c2nc(N3CCCN(CCO)C3=O)ccc2c1=O)C(F)(F)F [Example 365, 7-[3-(2-Hydroxyethyl)-2-oxotetrahydropyrimidin-1(2H)-yl]-4-oxo-N-[(2S)-1,1,1-trifluorobutan-2-yl]-1-(2,4,6-trifluorophenyl)-1,4-dihydro-1,8-naphthyridine-3-carboxamide] | 97% |
| O=C(NC12CC(C1)C2)c1cn(-c2c(F)cc(F)cc2F)c2nc(N3C[C@@H](O)[C@H](O)C3)ccc2c1=O [Example 366, N-(Bicyclo[1.1.1]pent-1-yl)-7-[(3R,4R)-3,4-dihydroxypyrrolidin-1-yl]-4-oxo-1-(2,4,6-trifluorophenyl)-1,4-dihydro-1,8-naphthyridine-3-carboxamide] | 100% |
| O=C(NC12CC(F)(C1)C2)c1cn(-c2c(F)cc(F)cc2F)c2nc(N3C[C@@H](O)CC3=O)ccc2c1=O [Example 367, N-(3-Fluorobicyclo[1.1.1]pent-1-yl)-7-[(4S)-4-hydroxy-2-oxopyrrolidin-1-yl]-4-oxo-1-(2,4,6-trifluorophenyl)-1,4-dihydro-1,8-naphthyridine-3-carboxamide] | 93% |
| O=C(NC12CC(F)(C1)C2)c1cn(-c2c(F)cc(F)cc2F)c2nc(N3C[C@@H](O)[C@H](O)C3)ccc2c1=O [Example 368, 7-[(3R,4R)-3,4-Dihydroxypyrrolidin-1-yl]-N-(3-fluorobicyclo[1.1.1]pent-1-yl)-4-oxo-1-(2,4,6-trifluorophenyl)-1,4-dihydro-1,8-naphthyridine-3-carboxamide] | 100% |
| CC(C)(CC(F)(F)F)NC(=O)c1cn(-c2c(F)cc(F)cc2F)c2nc(N3C[C@@H](O)[C@H](O)C3)ccc2c1=O [Example 370, 7-[(3R,4R)-3,4-Dihydroxypyrrolidin-1-yl]-4-oxo-N-(4,4,4-trifluoro-2-methylbutan-2-yl)-1-(2,4,6-trifluorophenyl)-1,4-dihydro-1,8-naphthyridine-3-carboxamide] | 97.2% |
| O=C(NC12CC(C(F)(F)F)(C1)C2)c1cn(-c2c(F)cc(F)cc2F)c2nc(N3C[C@@H](O)[C@H](O)C3)ccc2c1=O [Example 371, 7-[(3R,4R)-3,4-Dihydroxypyrrolidin-1-yl]-4-oxo-N-[3-(trifluoromethyl)bicyclo[1.1.1]pent-1-yl]-1-(2,4,6-trifluorophenyl)-1,4-dihydro-1,8-naphthyridine-3-carboxamide] | 97.5% |
| O=C(NC12CC(C(F)(F)F)(C1)C2)c1cn(-c2c(F)cc(F)cc2F)c2nc(N3C[C@@H](O)CC3=O)ccc2c1=O [Example 372, 7-[(4S)-4-Hydroxy-2-oxopyrrolidin-1-yl]-4-oxo-N-[3-(trifluoromethyl)bicyclo[1.1.1]pent-1-yl]-1-(2,4,6-trifluorophenyl)-1,4-dihydro-1,8-naphthyridine-3-carboxamide] | 100% |
| O=C(N[C@@H](C1CC1)C(F)(F)F)c1cn(-c2c(F)cc(F)cc2F)c2nc(N3CCNS3(=O)=O)ccc2c1=O [Example 373, N-[(1 S)-1-Cyclopropyl-2,2,2-trifluoroethyl]-7-(d1,1-dioxido-1,2,5-thiadiazolidin-2-yl)-4-oxo-1-(2,4,6-trifluorophenyl)-1,4-dihydro-1,8-naphthyridine-3-carboxamide] | 100% |
| O=C(N[C@@H](C1CC1)C(F)(F)F)c1cn(-c2c(F)cc(F)cc2F)c2nc(N3CCOC3=O)ccc2c1=O [Example 374, N-[(1S)-1-Cyclopropyl-2,2,2-trifluoroethyl]-4-oxo-7-(2-oxo-1,3-oxazolidin-1.3-yl)-1-(2,4,6-trifluorophenyl)-1,4-dihydro-1,8-naphthyridine-3-carboxamide] | 60% |
| CC(C)(CC(F)(F)F)NC(=O)c1cn(-c2c(F)cc(F)cc2F)c2nc(N3CCN(CCO)C3=O)ccc2c1=O [Example 375, 7-[3-(2-Hydroxyethyl)-2-oxoimidazolidin-1-yl]-4-oxo-N-(4,4,4-trifluoro-2-methylbutan-2-yl)-1-(2,4,6-trifluorophenyl)-1,4-dihydro-1,8-naphthyridine-3-carboxamide] | 96% |
| CC(C)(CC(F)(F)F)NC(=O)c1cn(-c2c(F)cc(F)cc2F)c2nc(N3CCNC3=O)ccc2c1=O [Example 376, 4-Oxo-7-(2-oxoimidazolidin-11-yl)-N-(4,4,4-trifluoro-2-methylbutan-2-yl)-1-(2,4,6-trifluorophenyl)-1,4-dihydro-1,8-naphthyridine-3-carboxamide] | 93% |
